Test results reported in PubChem BioAssay (Tox21).
Values joined by “and” are separate entries in the source; they are usually repeats but may differ in a detail not shown here. Equal entries are not always repeated. The inconclusive results got no clear call from the source; some entries with a clear call stand among them for comparison. For part of these data: Potencies beside an inconclusive call are fits to weak or partial responses and may not hold up. Active and inactive are the calls of the source. Unless noted, calls follow the shape of the full dose curve.

Experiments:
[1] = target: Estrogen receptor beta (Homo sapiens) (UniProt Q92731); test: qHTS assay to identify small molecule antagonists of the estrogen receptor beta (ER-beta) signaling pathway (AID 1259378; active = well fitted inhibition curve with a large enough effect in the signal ratio in the repeat runs, not every such curve was filed as active; inconclusive = weak or mixed curves, or effect the other way; inactive = no such curve, though single readings can be large or run the other way; the % refers to the signal ratio; also: potency is read from the fitted curve at half-maximal effect; as to activity, negative = inhibition: % is scaled to controls: 0 for no effect and ±100 for the full control effect); settings: ER-beta-UAS-bla HEK293T, beta-lactamase FRET ratio, 16 h; activity, negative = inhibition: at 92.4 µM (top of the series) unless noted
UniProt Q92731, sequence (Q92731 whole entry, looked up): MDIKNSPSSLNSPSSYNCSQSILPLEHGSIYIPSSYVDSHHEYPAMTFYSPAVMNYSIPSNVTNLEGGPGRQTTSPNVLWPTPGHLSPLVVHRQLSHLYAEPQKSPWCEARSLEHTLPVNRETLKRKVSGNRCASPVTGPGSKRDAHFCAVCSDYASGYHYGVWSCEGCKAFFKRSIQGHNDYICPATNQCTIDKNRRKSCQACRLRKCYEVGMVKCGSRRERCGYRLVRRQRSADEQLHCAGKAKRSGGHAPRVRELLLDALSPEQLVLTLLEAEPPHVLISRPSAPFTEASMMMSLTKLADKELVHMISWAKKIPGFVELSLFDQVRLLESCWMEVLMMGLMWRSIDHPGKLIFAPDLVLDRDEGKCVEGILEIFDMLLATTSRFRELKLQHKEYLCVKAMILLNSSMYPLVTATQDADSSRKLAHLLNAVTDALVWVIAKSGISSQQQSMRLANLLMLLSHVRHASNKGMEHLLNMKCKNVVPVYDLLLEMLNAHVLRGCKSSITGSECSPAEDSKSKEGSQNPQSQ
Summary of the method: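 ER-beta-UAS-bla HEK293T cells in 2% charcoal-stripped FBS medium treated with compound plus 1nM final 17-beta-estradiol for 16 hr at 37C. Beta-lactamase reporter read by FRET substrate fluorescence after 2 hours at room temperature.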

[2] = target: Thyrotropin receptor (Homo sapiens) (UniProt P16473); test: qHTS assay to identify small molecule antagonists of the thyroid stimulating hormone receptor (TSHR) signaling pathway (AID 1259385); settings: TSHR-HEK293 cAMP HTRF, TSH-stimulated antagonist mode; activity change, negative = inhibition: at 92.4 µM (top of the series) unless noted; also: nearly all actives have a fitted effect of over 20% in size; also: potency is read from the fitted curve at half-maximal effect
UniProt P16473, sequence (P16473 whole entry, looked up): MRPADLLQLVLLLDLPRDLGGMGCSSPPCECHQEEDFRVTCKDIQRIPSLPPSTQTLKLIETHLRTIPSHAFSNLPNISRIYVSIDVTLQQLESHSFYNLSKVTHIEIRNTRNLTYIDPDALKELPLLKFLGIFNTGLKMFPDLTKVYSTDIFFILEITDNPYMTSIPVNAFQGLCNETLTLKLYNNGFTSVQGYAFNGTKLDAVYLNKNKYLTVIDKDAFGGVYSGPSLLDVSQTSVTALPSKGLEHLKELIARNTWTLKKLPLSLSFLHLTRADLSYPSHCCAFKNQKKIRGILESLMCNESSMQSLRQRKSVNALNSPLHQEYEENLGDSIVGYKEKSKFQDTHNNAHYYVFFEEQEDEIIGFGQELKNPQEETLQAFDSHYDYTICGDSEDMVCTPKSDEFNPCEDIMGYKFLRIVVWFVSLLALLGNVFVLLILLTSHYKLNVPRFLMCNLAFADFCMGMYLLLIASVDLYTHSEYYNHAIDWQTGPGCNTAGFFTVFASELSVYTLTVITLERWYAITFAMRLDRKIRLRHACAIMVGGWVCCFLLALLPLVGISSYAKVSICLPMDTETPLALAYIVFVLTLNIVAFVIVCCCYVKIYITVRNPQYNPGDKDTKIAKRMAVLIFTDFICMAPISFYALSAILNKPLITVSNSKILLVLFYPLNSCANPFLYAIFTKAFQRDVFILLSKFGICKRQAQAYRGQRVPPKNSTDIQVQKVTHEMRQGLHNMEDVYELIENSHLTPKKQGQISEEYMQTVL
Summary of the method: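 TSHR-HEK293 cells (800/well) plated 18 h, then compounds with Ro20-1724 and TSH at 1.5 ng/mL final, 30 min at room temperature. cAMP quantified by HTRF (cAMP-d2/anti-cAMP-cryptate, 1 h); 15 concentrations in triplicate.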

[3] = qHTS assay to identify small molecule agonists of the estrogen receptor alpha (ER-alpha) signaling pathway in the presence of an antagonist - cell viability counter screen (AID 1259386; active = well fitted curve in the direction sought with a large enough effect in the repeat runs; inconclusive = weak or mixed curves; inactive = no such curve, though single readings can be large; an effect the other way counts as inactive or inconclusive;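 also: cells exposed to compounds for 22 h at 37 °C before the viability read; nearly all actives have a fitted effect of over 30% in size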; also: potency is read from the fitted curve at half-maximal effect; as to activity change, negative = cytotoxicity: % is scaled to controls: 0 for no effect and ±100 for the full control effect)
Summary of the method: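 Read-out: CellTiter-Fluor fluorescence after 1hr reagent incubation, measured in the same wells as the luciferase readout. VM7Luc4E2 cells were exposed to 15 compound concentrations with 10.0nM ICI-182,780 for 22hr at 37C.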

[4] = qHTS assay to identify small molecule antagonists of the progesterone receptor (PR) signaling pathway - cell viability counter screen (AID 1346798; active = well fitted curve in the direction sought with a large enough effect in the repeat runs; inconclusive = weak or mixed curves; inactive = no such curve, though single readings can be large; an effect the other way counts as inactive or inconclusive; also: nearly all actives have a fitted effect of over 50% in size; also: potency is read from the fitted curve at half-maximal effect; as to activity change, negative = cytotoxicity: % is scaled to controls: 0 for no effect and ±100 for the full control effect)
Summary of the method: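 Counter screen for cytotoxicity: viability of PR-UAS-bla HEK293T cells was measured with CellTiter-Glo luminescence following 16 hr compound exposure in the presence of R5020.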

[5] = qHTS assay to identify small molecule agonists of the progesterone receptor (PR) signaling pathway - cell viability counter screen (AID 1346799); also: nearly all actives have a fitted effect of over 45% in size; also: potency is read from the fitted curve at half-maximal effect
Summary of the method: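 Cells (PR-UAS-bla HEK293T) are plated at 3,000/well in 2% charcoal-stripped FBS medium, rested 6 hr, dosed and incubated 16 hr at 37C. CellTiter-Glo is then added and luminescence measured after 30 min at room temperature.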

[6] = target: Progesterone receptor (Homo sapiens) (UniProt P06401); test: qHTS assay to identify small molecule antagonists of the progesterone receptor (PR) signaling pathway (AID 1346795; active = well fitted inhibition curve with a large enough effect in the signal ratio in the repeat runs, not every such curve was filed as active; inconclusive = weak or mixed curves; the % refers to the signal ratio; also: potency is read from the fitted curve at half-maximal effect); settings: PR-UAS-bla HEK293T, beta-lactamase FRET ratio, 16 h; activity change, negative = inhibition: at 92.4 µM (top of the series) unless noted
UniProt P06401, sequence (P06401 whole entry, looked up): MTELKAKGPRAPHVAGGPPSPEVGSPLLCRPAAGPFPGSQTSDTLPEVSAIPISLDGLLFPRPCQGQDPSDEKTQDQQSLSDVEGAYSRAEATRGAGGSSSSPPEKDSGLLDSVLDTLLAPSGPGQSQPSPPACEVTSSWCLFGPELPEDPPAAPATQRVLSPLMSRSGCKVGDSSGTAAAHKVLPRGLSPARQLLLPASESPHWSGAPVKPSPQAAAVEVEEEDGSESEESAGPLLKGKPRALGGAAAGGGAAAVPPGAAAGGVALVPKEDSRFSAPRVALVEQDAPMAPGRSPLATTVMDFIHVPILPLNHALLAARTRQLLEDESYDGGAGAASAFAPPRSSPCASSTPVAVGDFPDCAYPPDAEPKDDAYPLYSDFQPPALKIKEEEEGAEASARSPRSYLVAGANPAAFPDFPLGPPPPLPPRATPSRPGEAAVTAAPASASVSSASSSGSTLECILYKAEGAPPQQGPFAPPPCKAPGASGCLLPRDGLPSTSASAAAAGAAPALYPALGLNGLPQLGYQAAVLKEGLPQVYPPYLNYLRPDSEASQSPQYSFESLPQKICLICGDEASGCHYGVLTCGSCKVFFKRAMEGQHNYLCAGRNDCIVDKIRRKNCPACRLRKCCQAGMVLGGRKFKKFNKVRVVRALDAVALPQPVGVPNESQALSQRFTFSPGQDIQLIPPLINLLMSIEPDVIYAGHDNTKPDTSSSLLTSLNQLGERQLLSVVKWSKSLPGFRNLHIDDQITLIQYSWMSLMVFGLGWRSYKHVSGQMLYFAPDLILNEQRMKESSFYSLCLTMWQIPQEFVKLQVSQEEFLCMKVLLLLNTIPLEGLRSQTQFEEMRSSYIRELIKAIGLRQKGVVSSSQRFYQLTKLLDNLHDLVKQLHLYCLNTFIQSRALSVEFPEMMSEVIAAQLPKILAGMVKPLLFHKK
Summary of the method: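 Antagonist mode: compounds tested against 1 nM (final) promegestone stimulation in HEK293T cells expressing PR-UAS-bla reporter, 16 hr at 37C, 5% CO2; beta-lactamase activity detected via B/G FRET substrate after 2 hr at room temperature.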

[7] = target: Progesterone receptor (Homo sapiens) (UniProt P06401); test: qHTS assay to identify small molecule agonists of the progesterone receptor (PR) signaling pathway (AID 1346784); settings: PR-UAS-bla HEK293T, beta-lactamase FRET ratio, 16 h; activation: at 92.4 µM (top of the series) unless noted; also: potency is read from the fitted curve at half-maximal effect; nearly all actives have a fitted effect of over 30% in size
Summary of the method: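 Cells (PR-UAS-bla HEK 293T, GripTite) were plated in assay medium containing 2% charcoal-stripped FBS and incubated 6 hr. Test compounds in DMSO were added for 16 hr at 37C. FRET substrate was then loaded for 2 hr at room temperature before fluorescence reading.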

[8] = target: Thyrotropin-releasing hormone receptor (Homo sapiens) (UniProt P34981); test: qHTS assay to identify small molecule antagonists of the thyrotropin-releasing hormone receptor (TRHR) signaling pathway (AID 1346877; active = well fitted inhibition curve with a large enough effect in the repeat runs, not every such curve was filed as active; inconclusive = weak or mixed curves; also: % is scaled to controls: 0 for no effect and ±100 for the full control effect)
UniProt P34981, sequence (P34981 whole entry, looked up): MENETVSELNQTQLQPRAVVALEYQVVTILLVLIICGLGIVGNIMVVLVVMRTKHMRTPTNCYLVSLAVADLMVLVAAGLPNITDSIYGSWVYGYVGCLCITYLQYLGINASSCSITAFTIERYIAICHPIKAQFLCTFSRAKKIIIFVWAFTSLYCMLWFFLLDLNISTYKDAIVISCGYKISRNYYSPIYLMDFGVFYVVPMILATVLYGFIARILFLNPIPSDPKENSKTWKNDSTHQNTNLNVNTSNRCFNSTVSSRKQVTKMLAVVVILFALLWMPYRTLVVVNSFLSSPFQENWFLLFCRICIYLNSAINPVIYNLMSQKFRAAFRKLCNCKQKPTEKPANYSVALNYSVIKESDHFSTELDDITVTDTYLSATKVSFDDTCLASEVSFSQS
Summary of the method: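 HEK293/TRHR cells, 18 h, 37 °C; Ca2+ dye 2 h; cpd 5 min RT; TRH 1 nM final; fluorescence read 3 min, 1 s intervals; 15 concs, triplicate.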

[9] = qHTS assay to identify small molecule agonists or antagonists of the thyroid stimulating hormone receptor (TSHR) signaling pathway - wild type cell line counter screen (AID 1259384); settings: HEK293 wild type, cAMP HTRF counter-screen; cAMP activity change: at 92.4 µM (top of the series), stronger effect = higher value unless noted; also: potency is read from the fitted curve at half-maximal effect
Summary of the method: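 Wild-type Hek293 cells, 800/well, 18 h at 37C, then compound with Ro20-1724 for 30 min RT. cAMP by HTRF (cAMP-d2/anti-cAMP cryptate), 1 h RT, fluorescence read. 15 concentrations, triplicates.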

[10] = qHTS assay to identify small molecule agonists of the TGF-beta/Smad signaling pathway (AID 1346859; active = well fitted activation curve with a large enough effect in the signal ratio in the repeat runs, not every such curve was filed as active; inconclusive = weak or mixed curves; the % refers to the signal ratio; also: potency is read from the fitted curve at half-maximal effect); settings: SBE-bla HEK293T, TGF-beta/Smad beta-lactamase reporter, 5 h; activation: at 76.8 µM (top of the series)
Summary of the method: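 Reporter line: HEK 293T with stably integrated SBE-controlled beta-lactamase. Compound exposure lasts 5 hr at 37 C and 5% CO2; substrate loading follows for 2 hr at room temperature, with emission read at 460 and 530 nm.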

[11] = qHTS assay to identify small molecule antagonists of the estrogen receptor beta (ER-beta) signaling pathway - cell viability counter screen (AID 1259382; active = well fitted curve in the direction sought with a large enough effect in the repeat runs; inconclusive = weak or mixed curves; inactive = no such curve, though single readings can be large; an effect the other way counts as inactive or inconclusive; also: % is scaled to controls: 0 for no effect and ±100 for the full control effect; nearly all actives have a fitted effect of over 55% in size)
Summary of the method: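 Luminescent ATP read-out (CellTiter-Glo, 30 min, RT) taken in the same wells as the bla reporter assay. HEK293T ER-beta-UAS-bla cells in 2% charcoal-stripped FBS were exposed to compounds with 1nM E2 for 16 hr at 37C.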

[12] = qHTS assay to identify small molecule agonists of the TGF-beta/Smad signaling pathway - cell viability counter screen (AID 1346829; active = well fitted curve in the direction sought with a large enough effect in the repeat runs; inconclusive = weak or mixed curves; inactive = no such curve, though single readings can be large; an effect the other way counts as inactive or inconclusive; also: top concentration of the series differs between compounds; % is scaled to controls: 0 for no effect and ±100 for the full control effect; nearly all actives have a fitted effect of over 45% in size)
Summary of the method: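 Compound-treated SBE-bla HEK 293T cells (5 hr, 37 C) were assessed for viability with CellTiter-Glo in parallel with the reporter read.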
Tags tell the direction and shape of the fitted curve or compound fluorescence and quenching.

With `CCC1(c2ccccc2)C(=O)NCNC1=O` the Potency [1] was “inactive”, the Potency [2] was inconclusive: 1.33 µM [falling, single point] and the Potency [3] was “inactive and inconclusive: 7.5 µM [cytotoxic, single point]”. The Potency [4] was “inactive” and the Potency [5] was “inactive”.
For `C1CCC2OC2C1` (stereo not drawn), the Potency [1] was “inactive”, the Potency [2] was inconclusive: 32.4 µM [falling, single point] and the Potency [6] was “inactive”.
With `O=C(Cl)c1ccc(C(=O)Cl)cc1` the activity, negative = inhibition [1] was inconclusive: 22%, the Potency [2] was inconclusive: 68.8 µM [falling, single point] and the Potency [5] was “inactive”.
In the case of `O=C(C(=O)c1ccc(Br)cc1)c1ccc(Br)cc1`, the activity, negative = inhibition [1] is reported as inconclusive: 14.4% [at 19 µM], the Potency [7] is reported as inconclusive: 6.04 µM [activator, full curve] and the activity change, negative = inhibition [6] is reported as inconclusive: -15.3% [at 18.9 µM]. For the same compound, the Potency [4] was inconclusive: 19.1 µM [cytotoxic, single point] and the activity change, negative = cytotoxicity [5] was inactive: 14.5% [at 19 µM].
In the case of `CC(COC(C)(C)C)OCCCO` (stereo not drawn), the Potency [1] is reported as “inactive”, the Potency [7] is reported as inconclusive: 27.3 µM [rising, single point] and the Potency [5] is reported as inconclusive: 30.6 µM [cytotoxic, single point]. For the same compound, the Potency [8] was “inactive”.
In the case of `OCCCC1CCCCC1`, the activity, negative = inhibition [1] is reported as inconclusive: -0.564% and the Potency [6] is reported as “inactive”.
With `OCc1cc(C(O)CNCCCCCCOCCCCc2ccccc2)ccc1O` (stereo not drawn) the Potency [1] was active: 16.8 µM, the Potency [9] was active: 0.0009 µM and the Potency [3] was active: 11.9 µM. The Potency [6] was inconclusive: 26.6 µM [falling, partial curve] and the Potency [5] was “inactive”.
For `O=[N+]([O-])c1ccc2[nH]ncc2c1`, the Potency [1] was “inactive” and the Potency [6] was inconclusive: 61.1 µM [falling, single point].
For `O=C(O)c1cn(C2CC2)c2cc(Cl)c(F)cc2c1=O`, the activity, negative = inhibition [1] was inconclusive: 21.8% [at 42.5 µM], the Potency [2] was “inactive” and the Potency [7] was inconclusive: 33.5 µM [rising, single point]. The Potency [6] was “inactive”, the Potency [4] was “inactive” and the Potency [10] was inconclusive: 0.134 µM [rising, full curve, poor fit].
For `O=C1OC(=O)C2C3C=CC(C3)C12` (stereo not drawn), the Potency [1] was “inactive”, the Potency [11] was “inactive” and the Potency [5] was inconclusive: 27.3 µM [rising, single point]. For the same compound, the Potency [12] was “inactive”.
With `O=C(CCN1CCN2CCCC2C1)N1c2ccccc2Sc2ccc(Cl)cc21` (stereo not drawn) the activity, negative = inhibition [1] was inactive: -12.6% [at 19 µM], the Potency [2] was inconclusive: 13 µM [falling, partial curve] and the Potency [3] was inconclusive: 14.6 µM [cytotoxic, partial curve]. For the same compound, the activity change, negative = cytotoxicity [5] was inactive: -27.9% [at 19 µM].
For `CC(=O)Nc1ccccc1`, the activity, negative = inhibition [1] was inconclusive: 23.4% [at 42.5 µM] and the Potency [2] was “inactive”.
With `O=C1[C@H](CC[C@H](O)c2ccc(F)cc2)[C@@H](c2ccc(O)cc2)N1c1ccc(F)cc1` the Potency [1] was inconclusive: 9.44 µM [inhibitor, full curve], the Potency [2] was “inactive” and the Potency [7] was inconclusive: 26.6 µM [falling, partial curve, poor fit]. The Potency [6] was active: 23.7 µM, the Potency [4] was inconclusive: 11.9 µM [rising, single point] and the Potency [5] was inconclusive: 6.68 µM [rising, full curve].
In the case of `C=CCOc1cc(Cl)ccc1C(=O)NCCN(CC)CC`, the Potency [1] is reported as “inactive” and the Potency [11] is reported as “inactive”.
In the case of `Cc1ccc(Nc2nccc(N(C)c3ccc4c(C)n(C)nc4c3)n2)cc1S(N)(=O)=O`, the Potency [1] is reported as inconclusive: 33.5 µM [inhibitor, single point], the Potency [3] is reported as inconclusive: 33.5 µM [cytotoxic, single point] and the Potency [6] is reported as inconclusive: 26.6 µM [falling, partial curve]. For the same compound, the Potency [4] was inconclusive: 8.41 µM [rising, partial curve] and the Potency [5] was inconclusive: 13.3 µM [rising, single point].
With `CCCCCOC(=O)CCC` the activity, negative = inhibition [1] was inconclusive: 23.9%, the Potency [2] was inconclusive: 15.4 µM [falling, single point] and the activity change, negative = inhibition [6] was inconclusive: 1.68%.
In the case of `CC(C)=CCCC(C)C=O` (stereo not drawn), the Potency [1] is reported as “inactive” and the Potency [6] is reported as “inactive”.
